Hit rate of the full screen: of about 48,000 compounds, about 450 (0.94%) were called active. The shares of active, inactive and inconclusive entries below differ from those in the screen. The call rests on the fitted dose curve; in most records, active means well fitted inhibition curve with a large enough effect; inconclusive means small, poorly fitted or top-dose-only effect; inactive means no such curve, though single readings can be large or run the other way. A potency beside an inconclusive call is a rough fit, not a confirmed value.
test: Primary qHTS for Identification of Small Molecule Inhibitors of Huntingtin Promoter Activity; conditions: HEK293 HTT promoter firefly luciferase reporter (activity 0% = vehicle and -100% = no light), 24 h; series mostly up to 57.5 µM; further: nearly all actives have a fitted effect of over 50% in size
How it was run: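 Quantitative HTS used concentration series of up to 57.5 uM final on HEK293 luciferase reporter cells, 24 h at 37 degrees C. Readout was Dual-Glo firefly luminescence.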
Potency means the concentration at half of the fitted maximal effect; tags describe the fitted curve by direction and shape.

Row | SMILES | Potency
1 | CCn1ccc2c(OCC(=O)Nc3ccccc3C)cccc2c1=O | inactive
2 | O=C(Nc1ccc2nc(SCC(=O)N3CCCc4ccccc43)sc2c1)c1ccccc1 | inconclusive: 15.8 µM [inhibitor, partial curve, poor fit]
3 | COc1ccc(S(=O)(=O)Nc2ccc3c(c2)CCCN3S(=O)(=O)c2ccc(C)cc2)cc1F | inconclusive: 31.6 µM [inhibitor, partial curve, poor fit]
4 | COc1cc(-c2nn(C3CCC(N4CCN(C(C)=O)CC4)CC3)c3ncnc(N)c23)ccc1NC(=O)c1cc2ccccc2n1C (stereo unspecified) | inactive
5 | COc1ccccc1CCNS(=O)(=O)c1ccc(N2CCCCS2(=O)=O)cc1 | inconclusive: 15.8 µM [inhibitor, partial curve, poor fit]
6 | Cc1ccc(C2c3[nH]c4ccccc4c3CCN2C(=O)CCC2CCCC2)cc1 (stereo unspecified) | inconclusive: 8.91 µM [inhibitor, partial curve]
7 | Cc1ccc(Cl)cc1-n1ncc2c(Nc3cccc(C)c3C)ncnc21 | inconclusive: 31.6 µM [inhibitor, partial curve, poor fit]
8 | CC(C)c1ccc(OCC(=O)N(Cc2ccc(N(C)C)cc2)C2CCS(=O)(=O)C2)cc1 (stereo unspecified) | inconclusive: 31.6 µM [inhibitor, partial curve, poor fit]
9 | Cc1ccc2nc(-c3cccnc3)c(Nc3ccccc3C)n2c1 | inconclusive: 39.8 µM [inhibitor, single point]
10 | CCc1ccc(NC(=O)Cn2c(=O)n(Cc3ccco3)c(=O)c3cccnc32)cc1 | inconclusive: 39.8 µM [inhibitor, single point]
11 | Cc1nc(-c2ccc(S(=O)(=O)NCc3ccc(N(C)C)cc3)cc2)co1 | inconclusive: 39.8 µM [inhibitor, single point]
12 | CCc1ccc(CNCc2c(C(=O)O)n(Cc3ccc(F)cc3Cl)c3cc(OC)ccc23)cc1 | inconclusive: 39.8 µM [inhibitor, single point]
13 | COc1cc2ccccc2cc1C(=O)N1CCN(c2nc3ccc(F)cc3s2)CC1 | inconclusive: 39.8 µM [inhibitor, single point]
14 | CCN1/C(=C/C=C/c2sc3ccccc3[n+]2CC)Sc2ccccc21 | inconclusive: 20 µM [inhibitor, single point]
15 | COC(=O)c1c(C)nn(-c2ccc(F)cc2)c1-n1cccc1 | inconclusive: 31.6 µM [inhibitor, single point]
16 | COc1ccc(NC(=O)c2ccco2)cc1NC(=O)COc1ccc(Cl)cc1C | inconclusive: 4.47 µM [inhibitor, full curve]

From PubChem BioAssay AID1508623 (National Center for Advancing Translational Sciences (NCATS), 2021)
